Drawing on publication PMC6212790, this text covers binding signal for 219 sequences.

This is one part of the list. At the low end of the ranking the order means little.

This assay deals with T1, GST-Rok-C97-191 (UniProt O34857).
T1 sequence: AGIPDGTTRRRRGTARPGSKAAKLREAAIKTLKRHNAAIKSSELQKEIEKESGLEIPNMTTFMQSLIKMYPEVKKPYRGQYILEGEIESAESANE
Put plainly: protein binding microarray.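 Also: rank score from −0.5 (least bound) to 0.5 (best bound).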 To be noted: Rok is a gene silencer of Bacillus subtilis; high values mean tight binding; most listed sequences are background and not binding sites; double strand, one strand shown.
ATTCGGCC: the binding signal is -0.132 E-score. Turning to ACCCTGGC, the binding signal was -0.108 E-score. The figure for TGTGGCAA is -0.0517 E-score; for GACACAGA it is -0.213 E-score; for CGTTTGTA it is 0.113 E-score.

As to TGGGTAAA, the binding signal came to 0.0472 E-score. AAGTGCTA yielded a binding signal of 0.153 E-score. CAAGAAAG had a binding signal of -0.0635 E-score. With ACATACTC the figure was 0.0713 E-score; with AGGACACA, -0.0986 E-score; with AGGCCGTC, -0.0752 E-score. With GCTTACCA, the binding signal was -0.125 E-score. With AGCCAGAT the figure was -0.0784 E-score. In turn, AGAGCAAC returned a binding signal of -0.122 E-score. The figure for GTGAACGA is -0.0692 E-score; for GCCGTTCC it is -0.237 E-score. With AGGTGACT the figure was -0.202 E-score; with CAGTTGTC, 0.0187 E-score. With ATTGCCCC the figure was -0.211 E-score; with AATCATCT, -0.0652 E-score. The sequence CTCTACAA showed a binding signal of 0.00826 E-score. In the case of ATGCAGGG, the binding signal is -0.115 E-score. The figure for ACCTTTCA is -0.109 E-score; for ACGAGACC it is -0.227 E-score; for CTGTTGAA it is -0.0237 E-score. The figure for AATGGACG is -0.176 E-score. With CTAGGTGA the figure was 0.0649 E-score. GGATCGCC: the binding signal is -0.128 E-score.

With AGAGAGTG, the binding signal is -0.0254 E-score. The figure for CCCAACTA is 0.257 E-score; for CACAGGGG it is -0.225 E-score; for ATTGACGC it is 0.0898 E-score. The figure for CTCTGGGC is -0.112 E-score; for ATAATTTG it is 0.344 E-score; for CACCCTGA it is -0.155 E-score. In turn, ACCCTAAA came in with a binding signal of 0.00947 E-score. With GGTGAGAA the figure was -0.115 E-score; with CTCCTCCA, -0.189 E-score. The figure for TACTAATA is 0.298 E-score; for ACTGTGTC it is -0.0876 E-score.

Turning to AAGCGGAA, the binding signal is -0.00148 E-score. The figure for CCCGTAAG is -0.221 E-score; for AGCTCAGG it is -0.065 E-score; for ATATCCTA it is 0.289 E-score. For the sequence AATAGGGA, the binding signal worked out at 0.061 E-score. In turn, AGACGTCG came in with a binding signal of 0.0181 E-score.

As for GTTATCGA, the binding signal was -0.0227 E-score.

For AGATAGAC, the binding signal came out at 0.0495 E-score.

Regarding ACCCATGA, the binding signal was found to be 0.0785 E-score.

With ACGCGCGC, the binding signal is -0.109 E-score. The figure for CATTATGG is 0.0609 E-score; for AATTTACT it is 0.416 E-score; for CGGTCTCA it is -0.142 E-score. With ACTGGCGA the figure was -0.0147 E-score; with ACCACTAG, 0.117 E-score. With CAATTCCG the figure was -0.0553 E-score; with CCAGTGTC, -0.173 E-score; with CAGCTCCA, -0.0439 E-score. GACTCTTA: the binding signal was -0.18 E-score. GGTACTTA came in with a binding signal of 0.198 E-score. With CGCCTTGC the figure was -0.31 E-score. With CATAACGC the figure was 0.0154 E-score; with CGATATCC, 0.134 E-score. In the case of ACGATTTC, the binding signal was -0.0407 E-score. With CCCAAACG the figure was 0.0806 E-score; with CACCGTTC, 0.0362 E-score; with GTCGTGGA, 0.0312 E-score. The figure for ATGTGTCA is 0.116 E-score; for ATCGGTTC it is -0.0124 E-score. For the sequence GCCGGGCA, the binding signal is -0.292 E-score.

ATTATCTC had a binding signal of 0.0108 E-score. The figure for TGGCCCCA is -0.202 E-score; for CTCCAACA it is 0.00134 E-score; for ACACGACG it is 0.033 E-score. The figure for ATTGGTCG is -0.0188 E-score. As to AGGTGAGA, the binding signal is -0.271 E-score. The figure for GCGAACGA is -0.167 E-score; for CCGCTCAG it is -0.196 E-score.

Take CCTAAGAA: the binding signal was -0.0671 E-score. The figure for ACACGTAC is -0.0778 E-score; for ACCAGTCC it is -0.162 E-score; for GGCGTAAC it is -0.23 E-score. The figure for ACCATCCC is 0.101 E-score. With CAGCGGTA the figure was 0.00278 E-score.

As to AAGTCGGT, the binding signal was 0.112 E-score.

Regarding CTATAAAG, the binding signal worked out at 0.0382 E-score. With ACCCGTGA the figure was -0.231 E-score; with CGGAGTGC, -0.256 E-score; with CTCTGGGA, 0.039 E-score. With CGGGAAGC the figure was -0.059 E-score; with CCGAAACA, -0.0139 E-score. With CCAAGCAC the figure was -0.302 E-score; with CGCATACC, -0.053 E-score. As to CTCTGCAA, the binding signal is -0.172 E-score. Sequence AGTGTAAA showed a binding signal of 0.177 E-score. With ACCTCGAT the figure was 0.113 E-score; with AGCCCATA, -0.116 E-score. As for AGCAGATC, the binding signal stood at 0.00263 E-score.

Take GGATAAAC: the binding signal came to 0.15 E-score. The figure for AGGAAGAA is 0.0109 E-score. The figure for CGAAATCC is 0.0516 E-score. The figure for GTCGCGAA is -0.197 E-score; for AGTATGAC it is 0.127 E-score. As for GTCGTAAA, the binding signal stood at 0.0852 E-score.

As for CCTCCGCA, the binding signal was -0.3 E-score. The figure for AAAGCGGC is -0.225 E-score.

For the sequence ATTAACGC, the binding signal was -0.000919 E-score.

The sequence ACCACTCC came in with a binding signal of 0.0373 E-score. With CGGAATCC the figure was -0.161 E-score; with CACTGCGG, -0.204 E-score; with CGTGTGTC, -0.0655 E-score.

For CAGTACAA, the binding signal stood at 0.251 E-score. The figure for ATAGAAAG is 0.292 E-score. Consider CATTCTAG, for which the binding signal amounted to 0.202 E-score. With AGTAATTA the figure was 0.376 E-score. The figure for TAGTGTCA is 0.158 E-score; for ATTAACGG it is 0.137 E-score; for AAAGGAGA it is -0.107 E-score. In turn, GACCATGC came in with a binding signal of -0.188 E-score.

For AAGCGTAA, the binding signal was determined as 0.00495 E-score.

As for AATCAAAC, the binding signal was found to be 0.145 E-score. AAGTTCCA registered a binding signal of -0.0431 E-score. In turn, AGTACCGA gave a binding signal of 0.222 E-score. As to TGCTGACA, the binding signal was -0.08 E-score.

The sequence AAATAATA showed a binding signal of 0.317 E-score. With CTAAGATC the figure was -0.0211 E-score; with CCCGCCGC, -0.409 E-score. In the case of CCGTGCCG, the binding signal was -0.0955 E-score. With GCTTGCAC the figure was -0.119 E-score; with AACAGAAA, 0.00945 E-score; with ACATGCCG, -0.156 E-score. With GAATCCTC the figure was -0.24 E-score. With CCTTTAGC the figure was -0.125 E-score; with AAATGCGC, 0.0187 E-score. In the case of GCCAAGCA, the binding signal was -0.314 E-score. The figure for AATCCCGA is -0.0261 E-score; for TAGTTCCA it is 0.26 E-score; for ATTTCCTA it is 0.204 E-score. With AAAGCATA the figure was 0.0711 E-score. The figure for AAAGAGGT is 0.0452 E-score; for ATCATCAC it is 0.0601 E-score. As for AGCACGAG, the binding signal is -0.17 E-score.

In the case of GCGTTTAC, the binding signal is -0.159 E-score. In the case of ACTACCCG, the binding signal is 0.0272 E-score. With CTGGAACC the figure was -0.0259 E-score.

Turning to AAGCATAG, the binding signal was found to be 0.0443 E-score.

GGCCTGAA showed a binding signal of -0.228 E-score. Take CCGGCGCG: the binding signal was -0.359 E-score. AACTATAA registered a binding signal of 0.309 E-score.

For CGGCAGAA, the binding signal was -0.0967 E-score. With GTGCGTCA the figure was -0.0321 E-score.

Turning to ACGCATAC, the binding signal was 0.0846 E-score. In turn, ATGGTTAC had a binding signal of -0.208 E-score. As for AAAGATCC, the binding signal stood at 0.00535 E-score.

As for AAGTCACG, the binding signal is -0.0367 E-score. Turning to CGTTGGGC, the binding signal was -0.288 E-score. The figure for ACAACGAA is 0.151 E-score.

CCTCAACA came in with a binding signal of -0.0481 E-score. With CTCTGTAC the figure was -0.152 E-score; with TTCACAAA, 0.0906 E-score; with GCTCTACA, -0.102 E-score. The figure for CTTATCGA is 0.063 E-score; for ATTTCATA it is 0.241 E-score. With TCATAGGA the figure was 0.154 E-score. As to GATCTGCA, the binding signal stood at 0.045 E-score. The figure for ACGGCCAG is -0.104 E-score; for CCAGGGGG it is -0.283 E-score. With AAAGCCAT the figure was -0.088 E-score; with ACGATTGC, -0.048 E-score. The figure for CGGAAGTA is 0.125 E-score; for CAGATCCG it is -0.0874 E-score; for AGCCGTAA it is -0.0793 E-score. Sequence AATCTGCT had a binding signal of -0.112 E-score. With CCCCTGTA the figure was -0.123 E-score; with ACTTGGCA, -0.102 E-score. For the sequence AAGGCGGT, the binding signal was -0.0701 E-score. The figure for CCTTGAGC is -0.154 E-score. With CGCAGACC the figure was -0.165 E-score; with AGTCGTTC, -0.195 E-score. The figure for GCACTGAC is 0.0455 E-score; for GTTACTTA it is 0.188 E-score. CGAGAGTC showed a binding signal of -0.158 E-score. The figure for ATTCTCGC is -0.0481 E-score. With ACGTACAT the figure was 0.258 E-score; with ATAAATGG, -0.0116 E-score. AGGTGAGC had a binding signal of -0.0241 E-score. With AAGGAATC the figure was -0.0107 E-score; with CCCTTGAA, -0.118 E-score. The figure for ATGGCCCG is -0.0979 E-score; for AGCGTCTG it is 0.0658 E-score. With CTGGCGGC the figure was -0.267 E-score. For the sequence CTTAAGTC, the binding signal was -0.204 E-score. With CTGATGGC the figure was -0.0245 E-score. The figure for ATTGATGA is 0.0215 E-score; for AAGAACTT it is -0.176 E-score; for CGATCTGA it is 0.029 E-score. With ACAAAAGA the figure was -0.0647 E-score; with CGTTCACA, -0.106 E-score; with GAGCAGCA, -0.0392 E-score.

Sequence GGGAACAA showed a binding signal of -0.0777 E-score. With AGTTTTAT the figure was 0.291 E-score; with GTCACAGA, -0.138 E-score; with CCTCGACC, -0.239 E-score.

CTACACAC returned a binding signal of 0.0653 E-score.

Sequence TAAGTCGA displayed a binding signal of 0.0787 E-score. The figure for AATTGGGA is 0.0388 E-score. With ATCGGCCG the figure was -0.0821 E-score. The figure for GAGGGAAC is -0.0649 E-score. As for AGACTGTA, the binding signal stood at 0.163 E-score. Take ATGCCCCA: the binding signal is -0.222 E-score. With AGTCGAAC the figure was -0.0233 E-score; with CTGTAGGC, -0.0325 E-score. With ATGGGAGA the figure was 0.0644 E-score; with TACTCGCA, -0.00444 E-score; with AGCTTAGC, 0.0963 E-score. With AGCATCAA the figure was -0.0279 E-score; with ACTATCAT, 0.289 E-score.

With CCAGATAA, the binding signal was -0.0149 E-score. Consider TATAAGAA, for which the binding signal turned out to be 0.165 E-score.
